Reference: PubChem BioAssay AID492949 (National Center for Advancing Translational Sciences (NCATS), 2010)
This list was built around the results that the source calls inconclusive (neither active nor inactive); the mix of calls is not that of the screen. Potencies of inconclusive entries are doubtful fits and often do not repeat. Active and inactive are the calls of the source. Calls come from the whole dose curve; as a rule, active = well fitted activation curve with a large enough effect; inconclusive = small, poorly fitted or top-dose-only effect; inactive = no such curve, though single readings can be large or run the other way.

These compounds were tested against Relaxin receptor 1 (Homo sapiens) (UniProt Q9HBX9) (assay: qHTS Assay for Agonists of the Relaxin Receptor RXFP1: THP1 Hit Validation). Details: THP1-RXFP1 cells, cAMP TR-FRET, 30 min; series mostly up to 115 µM; activation: at the top concentration.
Procedure, shortened: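 EC50s come from Hill-equation fits of data normalized between buffer (basal) and 29 nM porcine relaxin (100%). cAMP was measured by competitive TR-FRET in lysates of RXFP1-transfected THP1 cells after 30 min compound exposure, with Ro 20174 present.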
Note: nearly all actives have a fitted effect of over 60% in size.
Potency is the fitted concentration of half-maximal effect; tags give direction and shape of the fitted curve.
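Throughout, for activation: 0% = buffer alone basal and 100% = 29 nM porcine relaxin.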

Sequence of UniProt Q9HBX9 (Q9HBX9 whole entry, looked up): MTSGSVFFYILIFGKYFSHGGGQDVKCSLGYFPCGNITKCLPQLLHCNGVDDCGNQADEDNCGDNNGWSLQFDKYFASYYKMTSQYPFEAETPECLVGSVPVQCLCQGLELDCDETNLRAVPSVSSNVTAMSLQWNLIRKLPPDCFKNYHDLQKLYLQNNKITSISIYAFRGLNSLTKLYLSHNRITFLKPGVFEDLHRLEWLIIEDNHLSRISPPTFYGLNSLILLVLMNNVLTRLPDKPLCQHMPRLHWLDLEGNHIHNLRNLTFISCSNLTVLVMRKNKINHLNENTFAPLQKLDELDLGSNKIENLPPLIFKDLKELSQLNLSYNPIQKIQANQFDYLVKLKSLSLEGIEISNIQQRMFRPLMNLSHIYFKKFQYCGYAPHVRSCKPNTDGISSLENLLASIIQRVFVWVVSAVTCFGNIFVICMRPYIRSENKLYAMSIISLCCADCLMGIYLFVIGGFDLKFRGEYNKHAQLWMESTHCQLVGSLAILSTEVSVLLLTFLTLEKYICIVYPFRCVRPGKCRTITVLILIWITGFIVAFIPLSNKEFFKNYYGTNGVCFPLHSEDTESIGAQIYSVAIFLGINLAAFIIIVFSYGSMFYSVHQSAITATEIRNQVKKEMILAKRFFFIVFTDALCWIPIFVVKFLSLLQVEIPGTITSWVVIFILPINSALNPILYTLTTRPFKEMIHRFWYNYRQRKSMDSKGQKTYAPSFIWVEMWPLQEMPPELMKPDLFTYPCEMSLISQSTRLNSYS

Question: With `Cc1nnc(Nc2ccc(S(N)(=O)=O)cc2)c2ccccc12` as the compound, how does the Potency read?
Answer: Its Potency is inconclusive: 27.5 µM [activator, partial curve].

Question: How did the Potency turn out when `CCC(Sc1ccc2nnc(-c3cccnc3)n2n1)C(=O)OC` (configuration not stated) was run?
Answer: Its Potency is active: 19.4 µM.

Question: `CCN(CC)S(=O)(=O)c1ccc(N2CCOCC2)c(NC(=O)c2cccc(C#N)c2)c1` was tested. Which Potency did it give?
Answer: The Potency was active: 27.5 µM.

Question: How did the Potency turn out when `O=[N+]([O-])c1cc2c(c(CSc3nnc4ccccn34)c1)OCOC2` was run?
Answer: Its Potency is active: 13.8 µM.

Question: With `COc1ccc(S(=O)(=O)N(C)C)cc1NC(=O)CSc1nncs1` as the compound, how does the Potency read?
Answer: The Potency was inconclusive: 34.6 µM [activator, partial curve].

Question: `COc1ccc(-n2ncc3c(N4CCC(C(N)=O)CC4)ncnc32)cc1` was tested. Which Potency did it give?
Answer: Its Potency is inconclusive: 43.6 µM [activator, partial curve].

Question: With `Cc1ccc(Cl)cc1NC(=O)CCCN1C(=O)c2cccnc2C1=O` as the compound, how does the Potency read?
Answer: Its Potency is inconclusive: 38.9 µM [activator, partial curve].

Question: How did the Potency turn out when `Cc1cc(C)nc(/N=C(\N)Nc2ccc(S(=O)(=O)Nc3nccc(C)n3)cc2)n1` was run?
Answer: Its Potency is inconclusive: 43.6 µM [activator, partial curve].

Question: With `O=C(CCc1nnc2ccc(NCCCN3CCCC3=O)nn12)NCc1ccccc1Cl` as the compound, how does the Potency read?
Answer: The Potency was inconclusive: 30.9 µM [activator, partial curve, poor fit].

Question: Which Potency does the source give for `CSCCC(NS(=O)(=O)c1ccc2c(c1)c(=O)n(C)c(=O)n2C)C(=O)NC1CCN(Cc2ccccc2)CC1` (configuration not stated) here?
Answer: Its Potency is inconclusive: 34.6 µM [activator, partial curve].

Question: `COc1ccc(C(=O)COC(=O)Cn2cnc3c2c(=O)n(C)c(=O)n3C)c(OC)c1` was tested. Which Potency did it give?
Answer: The Potency was inconclusive: 27.5 µM [activator, partial curve].

Question: How did the Potency turn out when `CCOC(=O)C1CCN(C(=O)Cn2nc(C)n3cccc3c2=O)CC1` was run?
Answer: Its Potency is inconclusive: 34.6 µM [activator, partial curve, poor fit].

Question: For `COc1ccc(-n2nc(C(=O)NCC(=O)NCCCN3CCOCC3)c3ccccc3c2=O)cc1`, which Potency is on record?
Answer: Its Potency is inconclusive: 24.5 µM [activator, partial curve].

Question: With `CCCC(=O)Nc1ncnc2c1ncn2[C@@H]1O[C@@H]2OP(=O)(O)OC[C@H]2[C@H]1OC(=O)CCC` as the compound, how does the Potency read?
Answer: The Potency was active: 0.69 µM.

Question: Which Potency does the source give for `COc1cccc(/C=N/NC(=O)Cn2cnc3c2c(=O)n(C)c(=O)n3C)c1` here?
Answer: The Potency was inconclusive: 43.6 µM [activator, partial curve].

Question: How did the Potency turn out when `CC(=O)Nc1ccc(NC(=O)CSc2ccc3nnc(-c4ccccn4)n3n2)cc1` was run?
Answer: Its Potency is inconclusive: 21.8 µM [activator, partial curve].

Question: For `Cc1ccc(CNC(=O)CCc2nnc3ccc(NCCCN4CCCC4=O)nn23)cc1`, which Potency is on record?
Answer: Its Potency is inconclusive: 43.6 µM [activator, partial curve].

Question: How did the Potency turn out when `CCOC(=O)N1CCN(C(=O)CSc2ccc3nnc(-c4cccnc4)n3n2)CC1` was run?
Answer: Its Potency is inconclusive: 15.4 µM [activator, partial curve].

Question: `COc1ccc(CNC(=O)CN2C(=O)NC(C)(c3cccc(Br)c3)C2=O)cc1` (configuration not stated) was tested. Which “activation” value did it give?
Answer: Its value is inactive: -2.88%.

Question: Which “activation” value does the source give for `Nc1ncnc2c1ncn2C1OC(CO)C(O)C1O` (configuration not stated) here?
Answer: Its value is inactive: 5.01%.

Question: How did the Potency turn out when `Cn1nc(-c2ccc(Cl)cc2)nc2c(=O)n(C)c(=O)nc1-2` was run?
Answer: Its Potency is inconclusive: 3.09 µM [activator, full curve].

Question: How did the Potency turn out when `CC1CCCN(C(=O)COC(=O)CNC(=O)c2sc3ccccc3c2Cl)C1` (configuration not stated) was run?
Answer: Its Potency is inconclusive: 12.3 µM [activator, partial curve].

Question: Which “activation” value does the source give for `CN(C)c1ccc2nc3c(=O)[nH]c(=O)nc-3n(CC(O)C(O)C(O)CO)c2c1` (configuration not stated) here?
Answer: The value was inactive: -8.95%.

Question: How did the “activation” value turn out when `COc1ccc(/C=C2/SC(=O)N(CCC(=O)Nc3ccc(C)cc3)C2=O)cc1OC` was run?
Answer: Its value is inactive: -92.9%.

Question: How did the Potency turn out when `Cc1c(CCOC(=O)c2cc([N+](=O)[O-])ccc2Cl)sc[n+]1CCCCS(=O)(=O)[O-]` was run?
Answer: The Potency was inconclusive: 54.9 µM [activator, partial curve, poor fit].

Question: How did the Potency turn out when `O=C(NCCc1nnc2ccc(SCC(=O)N3CCCC3)nn12)c1ccc(F)cc1` was run?
Answer: Its Potency is inconclusive: 38.9 µM [activator, partial curve].

Question: For `CCN(CC)CCCCCC(=O)Nc1ccccc1C(=O)Nc1ccccc1`, which “activation” value is on record?
Answer: Its value is inactive: -4.7% [at 125 µM].
